In the supplement of paper PMC5499739:
Whole data set: some 16,000 sequences, median “Z-score” near -0.37, cut for the highest 2% near 3.2. The list shows a part of the results.

system: RBM10 RRM1-ZnF (GST-tagged construct); assay: RNAcompete 7-mer binding Z-score; higher = stronger binding preference
Protocol: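 RNAcompete: 20 pmol GST-tagged RBM10 RNA-binding constructs were incubated with a designed RNA pool of about 241,000 sequences up to 41 nt (1.5 nmol) on glutathione beads for 30 min at 4 °C and washed. Bound RNAs were identified by microarray hybridisation. Each RNA 7-mer is scored by a one-sided Z-score of its enrichment, computed over probes that contain the 7-mer within longer pool sequences.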

| Sequence | RNAcompete 7-mer binding Z-score |
| --- | --- |
| GCUUUUA | -0.737 |
| UUCCGAG | -0.668 |
| AUUAAUA | -0.487 |
| GACAUCC | -0.668 |
| GCCAGCU | -0.37 |
| GGGCUAC | 1 |
| UAGCUGG | 0.703 |
| ACCAAUC | -0.815 |
| AAGUUAU | -0.389 |
| UUUGUGC | -0.672 |
| UUUAUCU | -0.776 |
| AGUUACA | -0.139 |
| UCAUCCG | -0.808 |
| GCUCACG | -0.269 |
| CCACUGG | -0.152 |
| GAGCGAC | 0.192 |
| AUGUGGA | 2.27 |
| ACGGGAC | 1.69 |
| UACCUCA | -0.72 |
| CUAAUAA | -0.578 |
| GCCAAUC | -0.629 |
| GGUCGCC | 0.0268 |
| UAACACG | -0.305 |
| GGGUCGU | 2.09 |

| Sequence | RNAcompete 7-mer binding Z-score |
| --- | --- |
| CUUAUAC | -0.867 |
| GCACUCC | -0.477 |
| UGGUGGU | 2.8 |
| UUAGUUG | -0.0707 |
| GGCAAAA | 0.576 |
| GUUUGAU | -0.175 |
| GAAUGCC | -0.331 |
| UUACUAU | -0.737 |
| UUGAGCG | 0.329 |
| UAAUCUG | -0.701 |
| UCUGAUA | -0.701 |
| UUACUGG | 0.0365 |
| GUUCGAG | -0.00571 |
| CGGACAA | 0.209 |
| CAUCAAA | -0.672 |
| GCCAAUU | -0.704 |
| UUCUUCA | -0.815 |
| AUAGGCC | -0.272 |
| CGUUACG | -0.295 |
| GGAGUCG | 1.44 |
| GCUACGA | -0.311 |
| UGCUAAG | -0.0609 |
| AUGCGUC | -0.587 |
| CGUCUCU | -0.636 |

| Sequence | RNAcompete 7-mer binding Z-score |
| --- | --- |
| GCUUCAU | -0.737 |
| CGGCAAC | -0.301 |
| GAUAACA | -0.0187 |
| UCUAUCA | -0.584 |
| CUUUUCG | -0.967 |
| CGCUAUA | -0.646 |
| GUAGAAC | 0.54 |
| UGCACGC | -0.405 |
| CCCCCUC | -0.376 |
| GCUCAGU | -0.597 |
| AGACGAA | 0.423 |
| CGAUGGU | 0.917 |
| UCUAACU | -0.714 |
| GAACAGU | -0.136 |
| AUACUCC | -0.789 |
| AAUGUAU | -0.301 |
| UAACCCC | -0.535 |
| AAUAGAC | -0.11 |
| CGACAGA | -0.204 |
| ACACGAC | -0.509 |
| CCGUAUA | -0.776 |
| CGUCUCG | -0.743 |
| AUAGGCA | 0.686 |
| AGCGCAU | -0.529 |

| Sequence | RNAcompete 7-mer binding Z-score |
| --- | --- |
| GUCAGCA | 0.274 |
| AGCUAAU | -0.49 |
| UCUGCUA | -0.743 |
| AGCACCA | -0.399 |
| GCCAUCC | -0.72 |
| AAGGUAG | 3.69 |
| CGAGUUG | 0.0268 |
| AACGGCG | 0.43 |
| GAAUAAA | 0.017 |
| UGCGGAU | 0.371 |
| GUAUGCU | -0.0122 |
| CUAUGGA | 0.0495 |
| UCGCCUU | -0.844 |
| CAAGCUA | -0.659 |
| GUCUCUG | -0.347 |
| UCCUACG | -0.581 |
| UCUCCUG | -0.701 |
| GACAAUC | -0.561 |
| GAUGCUU | -0.678 |
| GUGAGAC | 0.897 |
| GGUUCUG | 0.615 |
| AUGUACG | 0.371 |
| AAUCCUU | -0.883 |
| GUGGUGC | 1.76 |

| Sequence | RNAcompete 7-mer binding Z-score |
| --- | --- |
| UCGGUGC | 0.0918 |
| CCGUAAC | -0.558 |
| AUGCAGG | 1.15 |
| UACGGGG | 3 |
| GCGACGU | 0.199 |
| CGAUUAC | -0.474 |
| GAAGCAG | 1.08 |
| GAGAGAG | 1.11 |
| GCUAGUG | 0.121 |
| CAGAAGC | -0.0512 |
| UGCGUGU | -0.116 |
| UUCAGCC | -0.828 |
| ACUAUAA | -0.662 |
| UAGCUUC | -0.802 |
| UGUCCUC | -0.753 |
| UGGGGAA | 3.66 |
| UUUCACA | -0.714 |
| ACCUUCA | -1 |
| UGAUCCG | -0.675 |
| ACCUUCC | -0.919 |
| UACUUAC | -0.464 |
| AUCGUGC | -0.487 |
| GGUAAUC | 0.699 |
| UGUGAGG | 2.01 |

| Sequence | RNAcompete 7-mer binding Z-score |
| --- | --- |
| GGGGCUC | 1.3 |
| GAUAAGC | 0.199 |
| UGCUUGG | 0.0723 |
| GGAGAAU | 1.72 |
| AAUGUAG | 1.06 |
| ACUAGUA | -0.435 |
| CAUGGAU | 1.48 |
| CAGGAUC | 0.0853 |
| UGAAUUU | -0.591 |
| UGACGCG | -0.0967 |
| GAACUGA | -0.0772 |
| UAGCACU | -0.288 |
| UCUGGCU | -0.607 |
| UAACUCU | -0.694 |
| CCUGCAC | -0.639 |
| AAAGUAC | -0.0122 |
| GUUCGAC | -0.561 |
| ACCCUAA | -0.571 |
| AUCAUAA | -0.587 |
| UGUAUCA | -0.334 |
| UGCUAUC | -0.61 |
| CUCACGG | -0.464 |
| GAUGCAU | -0.194 |
| UAUAGUG | 0.277 |

| Sequence | RNAcompete 7-mer binding Z-score |
| --- | --- |
| CAACGAA | -0.49 |
| GAUUGCA | -0.00571 |
| CAAUUAG | -0.035 |
| ACUUGCU | -0.74 |
| CUGAGGG | 1.81 |
| AUAGCGA | 0.163 |
| AGAGUAA | 0.491 |
| UUACUUU | -0.834 |
| GUAAGCC | -0.178 |
| CAUAAGU | -0.386 |
| GUACCGU | -0.295 |
| AGUAACU | -0.337 |
| GAGAAGU | 0.82 |
| CAUACGA | -0.607 |
| GCUAACG | -0.106 |
| AGUCUCC | -0.733 |
| UAACAAU | -0.526 |
| ACUGUAU | -0.493 |
| UGGAAGU | 1.79 |
| GAGUCCU | -0.568 |
| CGGAGGC | 1.16 |
| AGUAUUA | -0.272 |
| CCUGCAG | -0.581 |
| AUACCGU | -0.604 |

| Sequence | RNAcompete 7-mer binding Z-score |
| --- | --- |
| CGGCGUC | -0.337 |
| UGCUCUC | -0.772 |
| GCAAAUC | -0.532 |
| GCCACGC | -0.253 |
| CGGCCCA | -0.681 |
| CCUUGGA | -0.311 |
| UCCUCUU | -0.74 |
| CACUACG | -0.366 |
| GAGUUUA | -0.0902 |
| GUGCAAG | 0.826 |
| CGCUACA | -0.519 |
| CGCAGAC | -0.165 |
| CCUCUUA | -0.85 |
| GCUAAGA | -0.207 |
| CGGAUAC | 1.18 |
| CUCAUCC | -0.831 |
| GGAUCAU | 0.573 |
| AGCCUCC | -0.74 |
| GGAGAGU | 1.8 |
| CUCGUUC | -0.711 |
| UCUUUAG | -0.763 |
| CUGAAGG | 1.22 |
| UUCCGUA | -0.756 |
| CACUUCA | -0.792 |

| Sequence | RNAcompete 7-mer binding Z-score |
| --- | --- |
| CCCAGGU | 0.121 |
| UUGCUAU | -0.535 |
| CGGAAUA | 0.553 |
| AGCAGUA | -0.0122 |
| AUACCCA | -0.737 |
| UAUCCUU | -0.743 |
| CAUUAAC | -0.746 |
| CUACUAU | -0.587 |
| AUCCAUC | -0.75 |
| UGUGUCU | -0.353 |
| CGAAGGG | 2.43 |
| CUGAAAA | -0.457 |
| AUCACUU | -0.72 |
| CCCGGGU | 0.462 |
| UGUACUC | -0.633 |
| UCGUGGU | 0.433 |
| GCGUGCU | -0.24 |
| AGAUUCA | -0.509 |
| AUGCCAG | -0.399 |
| GUCUUCC | -0.571 |
| ACGCUCU | -0.688 |
| GAAUGAG | 1.23 |
| UACAGAC | -0.295 |
| CAGUAUA | -0.366 |

| Sequence | RNAcompete 7-mer binding Z-score |
| --- | --- |
| GCCGUCU | -0.821 |
| UGUUAGC | -0.548 |
| AUUUUUA | -0.662 |
| AGCUCAA | -0.626 |
| CCGGUGU | 0.144 |
| GUUUCCG | -0.409 |
| GCGCACC | -0.223 |
| AUCGGAG | 0.67 |
| UUCGUCA | -0.646 |
| CCGUAAU | -0.824 |
| CGGAAAU | 0.095 |
| ACCGAAC | -0.649 |
| ACUGUGU | -0.37 |
| GUAGGAG | 3.43 |
| AGACUGG | 0.884 |
| CCGACUU | -0.938 |
| UCAGACG | -0.142 |
| AGUAUCA | -0.311 |
